In PubChem BioAssay AID1159614 (National Center for Advancing Translational Sciences (NCATS), 2016):
Among all 45,000 compounds or so, about 65 (0.1%) were called active. The call rests on the fitted dose curve; in most records, active means well fitted activation curve with a large enough effect; inconclusive means small, poorly fitted or top-dose-only effect; inactive means no such curve, though single readings can be large or run the other way. Some of the results follow.

target: Galactocerebrosidase (Homo sapiens) (UniProt P54803); assay: A Novel Cell-Based Assay to Identify Small Molecules for B -Galactocerebrosidase; settings: 145M-Twi-hGALC-G270D cells (Twitcher mouse brain line with human GALC G270D), HMU-beta-Gal fluorescence, 48 h; series mostly up to 57.5 µM; activation: at the top concentration; further: 0% is about no effect; nearly all actives have a fitted effect of over 65% in size
Sequence of UniProt P54803 (P54803 whole entry, looked up): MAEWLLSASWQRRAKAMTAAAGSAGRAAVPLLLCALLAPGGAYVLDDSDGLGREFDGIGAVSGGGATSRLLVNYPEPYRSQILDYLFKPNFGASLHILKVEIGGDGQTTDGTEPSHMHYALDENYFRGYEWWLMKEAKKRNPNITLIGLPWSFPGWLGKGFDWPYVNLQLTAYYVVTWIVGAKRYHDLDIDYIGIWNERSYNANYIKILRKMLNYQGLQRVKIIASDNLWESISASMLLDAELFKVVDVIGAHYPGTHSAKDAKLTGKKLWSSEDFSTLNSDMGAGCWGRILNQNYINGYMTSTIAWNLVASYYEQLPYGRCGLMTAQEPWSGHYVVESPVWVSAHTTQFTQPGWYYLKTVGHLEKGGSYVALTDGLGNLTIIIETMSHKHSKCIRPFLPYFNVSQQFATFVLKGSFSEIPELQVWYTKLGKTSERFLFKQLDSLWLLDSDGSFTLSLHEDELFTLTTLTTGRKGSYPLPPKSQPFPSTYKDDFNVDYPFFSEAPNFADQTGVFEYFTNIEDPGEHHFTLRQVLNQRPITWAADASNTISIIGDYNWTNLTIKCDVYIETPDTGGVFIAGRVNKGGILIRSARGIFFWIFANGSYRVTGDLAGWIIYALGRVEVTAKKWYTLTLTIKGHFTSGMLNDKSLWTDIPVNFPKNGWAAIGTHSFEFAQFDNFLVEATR
In short: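 Fluorogenic HMU-b-Gal hydrolysis (0.1 mM final, pH 5.2 citrate-phosphate with 1 mg/mL sodium taurocholate; carbonate stop buffer) measures mutant GALC activity after compound treatment of live 145M-Twi Twitcher brain cells stably carrying human GALC-G270D, with wild-type GALC line alongside; activation sought.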

activation, inactive:
CCOc1ccc(CCNC(=O)c2cccc(Nc3nc4ccccc4nc3-n3nc(C)cc3C)c2)cc1OCC -32.6%
Cc1cccc(NC(=O)Cn2c(=O)n(Cc3ccccc3)c(=O)c3sc4ccccc4c32)c1 -1.54%
Fc1ccc(-c2noc3ncnc(Nc4ccc(F)cc4F)c23)cc1 -31.4%
CCOc1ccc(N(C(=O)c2ccc(Cl)cc2)S(=O)(=O)c2ccc3c(c2)n(C)c(=O)n3C)cc1 -3.32%
O=C(CC1N=C2c3ccccc3N=C(SCc3ccc(F)cc3)N2C1=O)NC1CCCCC1 (centres undefined) -16.2%
Cc1ccc(C)c(NC(=O)CSc2nc(-c3ccccc3)c(C#N)c(=O)[nH]2)c1 -5.99%
COc1ccc(-c2cc(-c3ccccc3)nc(SCC(=O)Nc3ccccc3C)c2C#N)cc1 -5.95%
CC(=O)c1cccc(NC(=O)Nc2c(C)n(C)n(-c3ccccc3)c2=O)c1 -4.98%
COc1cccc(CNc2nc3ccccc3c3nc(-c4cccc(C)c4)nn23)c1 -3.44%
CCN1CCc2nc(N)oc2CC1 -10.8%
O=C(CSc1ccc(-c2cccs2)nn1)Nc1ccccc1 -15.7%
Cc1cccc(NC(=O)CSc2ncc(-c3ccc(Br)cc3)[nH]2)c1 -12.7%
COc1ccc(CCNC(=O)Cn2nnc(-c3ccc(Cl)cc3)n2)cc1OC 4.55%
Cc1ccc(CN(Cc2ccco2)C(=O)c2ccc(Cl)cc2Cl)cc1 -6.75%
Cc1cccc(-c2nc(CCNC(=O)COc3ccccc3)cs2)c1 -13.1%
CC(NC(=O)CN1C(=O)COc2ccc(S(=O)(=O)N3CCCCCC3)cc21)c1ccccc1 (centres undefined) -4.29%
Cc1ccc(Sc2c(C(=O)NCc3cccc(F)c3)[nH]c3ccccc23)cc1 -5.76%
CC(C)Oc1ccc(CN2CCc3nc(Nc4ccc5c(c4)OCCO5)ncc3C2)cc1 -9.23%
COC(=O)c1ccc(NC(=O)CN2CCCN(Cc3ccc(Cl)cc3)S2(=O)=O)cc1 -43.1%
CCOCCCn1c(SCC(=O)Nc2cc(C)ccc2C)nc2c(oc3ccccc32)c1=O -13.7%
CCN1CCc2c(sc(NC(=O)c3ccc(S(=O)(=O)N(CCOC)CCOC)cc3)c2C(N)=O)C1 -26.6%
Cc1ccc(-c2nc3cc(NC(=O)c4cc5ccccc5o4)ccc3o2)cc1Cl -11.1%
Cc1c(C(=O)N(C)C)sc2c1c(=O)n(-c1ccc(Cl)c(Cl)c1)c(=O)n2CC(=O)C(C)(C)C -3.36%
COc1ccccc1CNC(=O)CCC(=O)N1CC(C)Sc2ccccc21 (centres undefined) 1.01%
COc1ccc(OC)c(NC(=O)CSC2=Nc3ccccc3C3=NC(CCC(=O)NCc4ccccc4)C(=O)N23)c1 (centres undefined) -15.9%
O=C(COc1ccc(Cl)cc1)N(Cc1ccco1)Cc1ccco1 -7.13%
Cc1ccc(NC(=O)CSc2nc3ccccc3n2CC(=O)N2CCC(C)CC2)cc1C 3.04%
CCCN(c1ccc(C(C)C)cc1)S(=O)(=O)c1ccc2c(c1)n(C)c(=O)c(=O)n2C -15.7%
CCc1nn(CC(=O)N2CCC(C)CC2)c(=O)c2cc3occc3n12 -10.1%
Cc1csc2nc(COC(=O)c3cccc(NC(=O)c4cccc(Cl)c4)c3)cc(=O)n12 5.86%
Cc1cccc(N2CCN(C(=O)CN3C(=O)COc4ccc(S(=O)(=O)N5CCC(C)CC5)cc43)CC2)c1C -5.49%
O=S(=O)(Nc1cccc(C(F)(F)F)c1)c1ccc(NS(=O)(=O)c2ccc3c(c2)OCCO3)cc1 0.0545%
COc1ccc(C(=O)Nc2cccc(-c3cn4ccsc4n3)c2)c(OC)c1 -0.251%
COc1ccc(Cl)cc1NC(=O)Cn1c(=O)oc2cc(S(=O)(=O)N3CCCCCC3)ccc21 -18.4%
O=C(c1cccs1)c1cn(CCOc2ccc(Cl)cc2)c2ccccc12 -12.8%
CC1=C(C(N)=O)C(c2cccc(O)c2)n2ncnc2N1 (centres undefined) -22.6%
Cc1ccc2sc(N(Cc3cccnc3)C(=O)Cc3ccccc3)nc2c1C -13.8%
Cc1ccc(-n2nc3c(N4CCC(C(=O)NC5CCC(C)CC5)CC4)nnc(C)c3c2C)cc1 (centres undefined) -10.5%
CCOc1ccc(N(CC(=O)Nc2cc(OC)cc(OC)c2)S(=O)(=O)c2c(C)[nH]c(=O)[nH]c2=O)cc1 -11.6%
CCC(=O)Oc1cc(C(C)(C)C)cc2cc(-c3nc(-c4ccc(OC)cc4OC)no3)c(=O)oc12 9.14%
C[N+](C)(C)CCOC(=O)CCC(=O)OCC[N+](C)(C)C -6.88%
CN(C)CCNC(=O)c1ccc(Cn2c(SCc3ccc(F)cc3)nc3cccnc32)cc1 -4.72%
Cc1ccc(C(=O)c2cn(Cc3ccccc3F)c3cc4c(cc3c2=O)OCCO4)cc1 -11.2%
Cc1nc(C2CCCCC2)c(-c2ccc(S(N)(=O)=O)c(F)c2)o1 -14.2%
CCn1c2ccccc2c2nnc(N3CCN(c4cccc(Cl)c4)CC3)nc21 2.9%
CCOC(=O)c1c(C)[nH]c(CCC(=O)NCc2ccc(OC)c(OC)c2)c1C -17.4%
Cc1ccc(CN2CCSc3ccc(C(=O)NCc4ccc(OC(C)C)cc4)cc32)cc1 -4.02%
Cc1cc(NS(=O)(=O)c2ccc(N)cc2)nc(C)n1 -13.2%
COc1ccc(-c2noc(CCCC(=O)Nc3cccc(Cl)c3C)n2)cc1 -21.6%
COc1ccc(CNC(=O)Cc2c(C)c3cc4c(C)coc4cc3oc2=O)cc1 -0.927%
CSc1nn(CC(=O)Nc2ccccc2F)c(N)c1S(=O)(=O)c1ccccc1 -4.16%
COCCCNC(=O)Cn1c(=O)n(-c2cccc(C)c2)c(=O)c2c1c1cc(C)ccc1n2C -6.01%
CCc1ccc(NC(=O)CCc2c(C)nc3nc(-c4cc(OC)cc(OC)c4)nn3c2C)cc1 9.67%
Cc1ccc(N2CCn3c2nc2c3c(=O)n(C/C=C/c3ccccc3)c(=O)n2C)cc1C -4.57%
COc1ccc(C2CC(=O)c3c([nH]c(C(=O)OCc4ccccc4)c3C)C2)cc1 (centres undefined) -25.1%
COc1cccc(/C=C/c2onc(C)c2S(=O)(=O)N2CCC(C(=O)N3CCCCC3)CC2)c1 -7.41%
Cc1ccc(OCCn2cc(C(=O)c3cccs3)c3ccccc32)cc1 4.41%
COCc1cc(C)nc2sc(C(=O)Nc3ccccc3O)c(N)c12 -7.95%
COc1ccccc1-c1c(C)nn2c(-c3ccccc3)cc(-c3ccccc3)nc12 -12.5%
CCOc1ccc(C2=NC(c3ccncc3)=Nc3ccc(C)cc3N2)cc1OCC -16.3%
Cc1cccc(N2CCN(C(=O)Cn3nc(C)c4sc5ccccc5c4c3=O)CC2)c1C -15.1%
Cc1ccsc1/C=C/C1=NCCCN1C -2.34%
COc1cccc(C(=O)Nc2ccc(-n3nncc3-c3ccccc3)cc2)c1OC -9.52%
COc1ccc(CNC(=O)Cn2c(=O)nc(-c3ccccc3)c3cc(Cl)ccc32)cc1OC -18.8%
CCCSCCCNC(=O)C1CCN(C(=O)c2cnn(-c3ccccc3)c2-n2cccc2)CC1 7.52%
COc1ccccc1NC(=O)C1=C(C)Nc2c(C(=O)Nc3ccc(C)cc3)cnn2C1c1cccc(OC)c1OC (centres undefined) -1.1%
COc1ccc(N(Cc2ccccc2)C(=O)c2nc(S(C)(=O)=O)ncc2Cl)cc1 -19.5%
Cc1ccccc1NC(=O)c1cc2c(-c3ccccc3)nn(-c3ccccc3)c2s1 -8.45%
COc1ccc(NC(=O)CSc2nc(-c3cccs3)cc(C(F)(F)F)n2)cc1Cl -10.1%
CCc1ccc(NCc2cc3ccc(OC)cc3n(CC(=O)Nc3ccccc3C)c2=O)cc1 -23%
CC(=O)c1cccc(NC(=O)CSc2nc3c(c(=O)[nH]2)CCC3)c1 -13.7%
CCC1=Nc2cc(C(=O)NCCc3ccc(OC)c(OC)c3)ccc2Sc2ccccc21 -17.3%
CCCCN(CCCC)CCNC(=O)Cn1nc(CC)n2c(cc3sccc32)c1=O -17.1%
CCc1c(C)sc2c1CCN(Cc1cccc(OC)c1)C2c1ccccc1 (centres undefined) -7.5%
CCc1ccc(C(=O)CC2(O)C(=O)N(CCc3ccccc3)c3ccc(Br)cc32)cc1 (centres undefined) -26.6%
Cc1ccc(CSC2=Nc3ccccc3C3=NC(CCC(=O)NC4CCCCC4)C(=O)N23)cc1 (centres undefined) -24.9%
COc1ccc(CCC(=O)NCc2ccc3c(c2)CCN3C(=O)c2ccc(Cl)cc2)cc1 1.06%
Cc1ccc(CNC(=O)C(NS(=O)(=O)c2cccs2)C(C)C)cc1 (centres undefined) -7.17%
CCc1ccccc1S(=O)(=O)Cc1ccc(C(=O)NCc2ccc(Cl)cc2)o1 -9.92%
COC(=O)c1ccc(Cl)cc1NC(=O)Nc1nnc(N(C)C2CCCCC2)s1 -8.46%
CCc1nc2ccccc2n2c(-c3ccc(C)cc3)c3c(=O)n(C)c(=O)n(C)c3c12 -16.9%
CCc1ccc2oc(C(=O)Nc3ccccc3OC)cc(=O)c2c1 -11.3%
O=C(Cn1c(=O)n(-c2ccc(F)cc2)c(=O)c2sc3ccccc3c21)NC1CCCC1 -2.38%
COc1ccc(-n2nc3ccc(NC(=O)c4c(OC)cccc4OC)cc3n2)cc1 -8.35%
NC(=O)C1CCN(C(=O)c2ccc3c(c2)N(Cc2cccc(Cl)c2)C(=O)c2ccccc2S3=O)CC1 (centres undefined) -12.8%
Cc1csc2nc(COC(=O)CNC(=O)c3ccc(F)cc3)cc(=O)n12 -4.49%
CCOC(=O)c1c(C)[nH]c(C)c1S(=O)(=O)NCC(=O)Nc1ccc(C)cc1C -1.52%
COc1ccc(CSc2nc3ccncc3n2CC(=O)Nc2cc(C)cc(C)c2)cc1 1.18%
Cc1cccc(N2CCN(C(c3ccccc3)c3nnc(-c4ccccc4F)o3)CC2)c1C (centres undefined) -12.9%
Cc1cc(C)cc(NC(=O)C2CCCN(S(=O)(=O)c3cccc4nsnc34)C2)c1 (centres undefined) -12.8%
Fc1ccc(Nc2nc(SCc3ccccc3Cl)nc3ccccc23)cc1 -30.6%
CCOc1ccc(C(=O)c2cn(CC(=O)Nc3cccc(OC)c3)c3cc4c(cc3c2=O)OCCO4)cc1 -4.89%
Cc1nn2c(-c3ccco3)ccnc2c1-c1ccc(Br)cc1 -11.3%
CC(=O)OC[C@H]1O[C@@](COC(C)=O)(O[C@H]2O[C@H](COC(C)=O)[C@@H](OC(C)=O)[C@H](OC(C)=O)[C@H]2OC(C)=O)[C@@H](OC(C)=O)[C@@H]1OC(C)=O -15.9%
